Data taken from PubChem BioAssay (NCI).
Values joined by “and” are separate entries in the source; they are usually repeats but may differ in a detail not shown here. Identical values can stand only once.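 Dose response: 5 concentrations. Exposure: 48 h. Format: 96-well plates. Endpoint: linear interpolation; highest concentration if not reached. At the GI50, growth is halved. TGI denotes the concentration required for complete inhibition of growth.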

Tested on: NCI-H322M lung
Experiment: growth of human tumour cells (NCI), 48 h

Row | Structure (SMILES) | TGI | GI50
1 | O=C(O)c1ccccc1Sc1ccc(C=C2NC(=S)N(c3ccccc3)C2=O)s1 | > 100 µM | –
2 | O=C(OC1C#CCSCC#C/C=C\1)c1ccc2c(c1)C(=O)c1ccccc1C2=O (configuration not stated) | > 100 µM | –
3 | Cc1csc(NCc2ccc(Cl)cc2)n1 | > 100 µM | –
4 | CC1(C)C2CC(=O)C1(C)C(OCc1ccccc1)C2Br (configuration not stated) | > 100 µM | 49.9 µM and > 100 µM
5 | CC/C(CC(=O)CCC(=O)Nc1ccc(C)c(C)c1)=N\NC(=O)c1cc2ccccc2cc1O | > 100 µM | –
6 | COc1cccc(NC(=O)/C(CS(=O)(=O)CCC(C(C)=O)C(C)=O)=N\NC(C)(C)C)c1 | > 100 µM | –
7 | CCOc1c2c(cc3c1C(=O)c1c(OC)cccc1C3=O)C=C(OC)CC2 | > 25 µM | –
8 | Clc1ccc(Cc2nc3cc4ccccc4cc3[nH]2)cc1Cl | 53.2 µM | –
9 | O=C1c2cccc3cc([N+](=O)[O-])cc(c23)C(=O)N1c1ccc(OCCN2CCCC2)cc1 | > 100 µM | –
10 | COc1ccc2c(Cl)cc(NC(=S)Nc3ccccc3)nc2c1 | > 100 µM | –
11 | CCOC(=O)c1c(N2CCN(C)CC2)[nH]c(=O)c(C(c2c(Cl)cccc2Cl)c2c(O)c(C(=O)OCC)c(N3CCN(C)CC3)[nH]c2=O)c1O | 48.4 µM | –
12 | Cc1ccc([N+](=O)[O-])cc1S(=O)(=O)Nc1ccc(C2=NN(S(=O)(=O)c3cc([N+](=O)[O-])ccc3C)C(c3ccccc3O)C2)cc1 (configuration not stated) | > 100 µM | –
13 | Oc1ccccc1/C=N\NC(=S)Nc1ccc(F)cc1 | 28.8 µM | 1.6 µM
14 | O=[N+]([O-])c1ccc(N=P(c2ccccc2)(c2ccccc2)c2ccccc2)n2nnnc12 | > 100 µM | –
15 | C/C(=C\COP(=O)(O)OP(=O)(O)O)CC/C=C(\C)CNc1c(F)c(F)c(F)c(F)c1F | > 100 µM | –
16 | CCCCCCCCCC(=O)Oc1ccc(/C(=C(/C)c2ccccc2)c2ccc(OCCN3CCCC3)cc2)cc1 | 15.7 µM | 8.04 µM
17 | CC(=O)CC(O)(C(F)(F)Cl)C(F)(Cl)Cl (configuration not stated) | > 10 µM | –
18 | O=C(Cn1c(=O)oc2ccccc21)N(c1ccccc1)c1ccccc1 | > 100 µM | –
19 | CCc1ccc([OH2+])c(C(=O)[O-])c1.CCc1ccc([OH2+])c(C(=O)[O-])c1.CCc1ccc([OH2+])c(C(=O)[O-])c1.CCc1ccc([OH2+])c(C(=O)[O-])c1.[Cu+2].[Cu+2] | 45.2 µM | 21.3 µM
20 | CSCSCC(CO)NC(=O)/C=C/c1c(C)[nH]c(=O)[nH]c1=O (configuration not stated) | > 100 µM | –
21 | Cc1n[nH]c(=O)c2c3c([nH]c12)-c1ccccc1C3 | > 100 µM | –
22 | CCOC(=O)C1=C(C)N(NC(=O)Nc2ccccc2)C2(N)N(NC(=O)Nc3ccccc3)C(C)=C(C(=O)OCC)C12C#N (configuration not stated) | 61.8 µM | –
23 | O=C(O)CN(CCN(CC(=O)O)CC(=O)O)CC(=O)O.[Cu+2].[Na+] | > 100 µM | > 100 µM
24 | NC1=Nc2ncccc2C(=O)NN1 | > 10 µM | –
25 | Cc1c2ccncc2c(C)c2c1[nH]c1ccc(O)cc12 | 0.345 µg/mL | 0.0214 µg/mL

Row | Structure (SMILES) | TGI | GI50
26 | CCn1c(=O)nc2n(-c3ccc(SC)cc3)c3ccccc3nc-2c1=O | > 100 µM | –
27 | N/N=C1/C(=O)N(c2ccc(Cl)cc2)C(=O)C(=O)C1c1nc2ccccc2s1 (configuration not stated) | > 100 µM | –
28 | COc1ccc(/C=N/n2c(-c3ccccc3)n[nH]c2=O)c(OC)c1 | > 100 µM | –
29 | CC(C)C1OC(=O)C(Cc2ccccc2)N(C)C(=O)C(C(C)C)OC(=O)C(Cc2ccccc2)N(C)C(=O)C(C(C)C)OC(=O)C(Cc2ccccc2)N(C)C1=O (configuration not stated) | 2.89 µM | –
30 | O=C(O)CCCCCNCc1cc2cc3c(cc2c2cc(OCc4ccccc4)ccc12)OCO3 | 4.82 µM | 2.13 µM
31 | CCCCCCCC(=O)NC(C)(C)C(=O)NCC(=O)NC(CC(C)C)C(=O)NC(C)(C)C(=O)NCC(=O)NCC(=O)NC(CC(C)C)C(=O)NC(C)(C)C(=O)NCC(=O)NC(C(=O)NC(CO)CC(C)C)C(C)CC (configuration not stated) | 7.58 µM | –
32 | C=CCCCCCCCCCOC1C=CC(O)C(CO)O1 (configuration not stated) | > 100 µM | –
33 | O=C(C=P(c1ccccc1)(c1ccccc1)c1ccccc1)c1ccccc1-c1ccccc1C(=O)C=P(c1ccccc1)(c1ccccc1)c1ccccc1 | 0.157 µM | –
34 | N#C/C(=C/c1ccc([N+](=O)[O-])o1)c1ccccc1 | > 100 µM | –
35 | COC(=O)c1sc(-n2cnc3cc(OC)c(OC)cc32)cc1OCc1ccccc1C(F)(F)F | > 25 µM | > 25 µM
36 | COc1ccc(N2C(=O)[C@@H]3[C@@H]4CC(C)CC[C@@H]4c4c([nH]c5ccccc45)[C@@H]3C2=O)cc1 (some centres not stated) | 86.9 µM | –
37 | Cc1ccc(C)c(N2CCN(c3ccncc3N)CC2)c1 | > 100 µM | 44.5 µM
38 | CC1OC(O[C@@H]2C=C3CC[C@@H]4[C@H](CC[C@]5(C)[C@@H](c6ccc(=O)oc6)CC[C@]45O)[C@@]3(C)CC2)C(O)C(O)C1O (some centres not stated) | 0.00254 µM and 0.000577 µM | –
39 | COc1cccc(/C=C\C(=O)c2ccccc2)c1 | 30.9 µM | 14.9 µM
40 | COc1ccc(/C(=C(\c2ccccc2)[N+](=O)[O-])c2ccc(OCCN3CCCC3)cc2)cc1 | 14.6 µM | 4.49 µM
41 | NC1CC(=O)c2c(I)sc(I)c21 (configuration not stated) | 48.9 µM | –
42 | C#Cc1c(C)c(/C=C/C(C)=C\C(=O)OC)n(C)c1C | > 100 µM | –
43 | CC(C)(c1ccc(C=O)o1)c1ccc(C(C)(C)c2ccc(C=O)o2)o1 | > 100 µM | –
44 | CCNC(=O)O/N=C1\CCC2[C@@H]3CC=C4C[C@@H](OC(=O)NCC)CC[C@]4(C)C3CC[C@]12C (some centres not stated) | 10.8 µM | –
45 | CN(CCNC(=O)c1nn(C)c2c1Cc1ccccc1-2)CCNC(=O)c1nn(C)c2c1Cc1ccccc1-2 | 35.2 µM | –
46 | C(/C=C(\Nc1ccccc1)c1ccc2ccccc2c1)=Nc1ccccc1 | 8.59 µM | –
47 | NS(=O)(=O)c1cccc(Nc2cc(-c3ccc(F)cc3)[nH]n2)c1 | > 25 µM | 14.3 µM
48 | CCOC(=O)c1cccc(N=NNc2cccc(C(=O)OCC)c2)c1 | > 100 µM | –
49 | CN(N=O)c1ccc(/C=C/c2ccnc3ccccc23)cc1 | > 100 µM | –
50 | O=C1c2ccc3c4c(ccc(c24)C(=O)N1CCCCO)C(=O)N(CCCCO)C3=O | 7.33 µM | 2.18 µM

Row | Structure (SMILES) | TGI | GI50
51 | COc1ccc(Cl)cc1NC(=O)O/N=C(\Cl)C(C)C | 34.4 µM | –
52 | CSC(SC)=C(C#N)C(=O)Nc1ccc(Cl)cc1 | > 100 µM | –
53 | O=C1CCNC/C1=C\c1ccccc1 | > 100 µM | –
54 | O=C(CC1(O)C(=O)Nc2ccc(Cl)cc21)c1ccc(C(=O)NCC2CCC3(CC2)OOC2(CCCCC2)OO3)cc1 (configuration not stated) | 31.5 µM | 13.1 µM
55 | COc1ccccc1NC(=O)c1sc2ncn(CCOc3ccccc3)c(=O)c2c1C | > 50 µM | > 50 µM
56 | O=C1OC(c2ccccc2)=N/C1=C\c1ccccc1 | > 100 µM | –
57 | O=S(c1ccc(O)cc1)c1ccc(O)cc1 | > 100 µM | –
58 | CC(C)=CC(=O)c1[nH]c2ccccc2c1CC(=O)NCCc1cnc[nH]1 | > 100 µM | –
59 | Cc1nc2nnc(CCCCCCCCc3nnc4nc(C)[nH]n34)n2[nH]1 | > 100 µM | –
60 | COc1cc([C@@H]2c3cc4c(cc3[C@@H](OC3OC5COC(C)OC5C(O)C3O)[C@H]3COC(=O)[C@H]23)OCO4)cc(OC)c1O (some centres not stated) | 141 µM and 500 µM and 459 µM | –
61 | COc1ccc2nc(-c3ccc(N)cc3)sc2c1 | > 100 µM | –
62 | Cc1ccccc1NC(=O)C(=O)C(C(=O)c1ccccc1F)C1OC(=O)c2ccccc21 (configuration not stated) | 78.5 µM | –
63 | Cc1cc2c3ccccc3n3c2c2c1OC1(C)CCC(C2C1)C3(C)C (configuration not stated) | > 25 µM | –
64 | Cc1cccc(NC(=S)NNC(=O)c2cc(-c3ccccc3)nc3ccccc23)c1 | 97.3 µM | –
65 | O=C(NCC(O)COc1ccccc1)c1ccccc1O (configuration not stated) | > 100 µM | –
66 | NS(=O)(=O)c1ccc(Nc2c3ccccc3nc3c(C(=O)NC(CO)(CO)CO)cccc23)cc1 | 0.356 µM | –
67 | COc1ccc(/C=C\c2cc(OC)c(OC)c(OC)c2)cc1NC(=O)/C=C/c1cc(OC)c(OC)c(OC)c1 | > 100 µM | 9.55 µM
68 | CC1(C)OCC(/C=C\C(O)CC2(C)OCCO2)CO1 (configuration not stated) | > 100 µM | –
69 | COc1ccc([C@@H]2[C@@H](Cl)C(=O)N2c2cc(OC)c(OC)c(OC)c2)cc1C | > 100 µM | 2.19 µM
70 | COC(=O)[C@@H]1CN(C(=O)Cc2ccccc2)C(=O)N1 | > 100 µM | –
71 | CC[C@@]1(O)C(=O)OCc2c1cc1n(c2=O)Cc2c-1nc1ccc(N)cc1c2CC[Si](C)(C)C | 13.2 µM | –
72 | CN1N=C(c2ccncc2)OC1c1ccc(C(F)(F)F)cc1 (configuration not stated) | > 100 µM | –
73 | CCOC(=O)CN(CC)C(=O)NC12CC3CC(CC(C3)C1)C2 | > 605 µM | –
74 | O=C(CC1(O)C(=O)Nc2ccccc21)c1cccc(O)c1 (configuration not stated) | > 100 µM | –
75 | C#C[C@]1(O)CC[C@H]2[C@@H]3CCC4=C/C(=N/OC(=O)c5cccc6cc7ccccc7nc56)CC[C@@H]4[C@H]3CC[C@@]21CC | > 100 µM | –

Row | Structure (SMILES) | TGI | GI50
76 | ClC/C=C/CSc1ncnc2nc[nH]c12 | > 100 µM | > 100 µM
77 | CCOC(=O)Nc1cc2c(c(N)n1)N=C(c1ccc(Cl)cc1Cl)CN2 | 27.5 µM | –
78 | C[N+]1(CC[N+]2(C)CCCC2c2cccnc2)CCCC1c1cccnc1 (configuration not stated) | 91.1 µM | –
79 | CN(C(=O)C12C3C4C1C1C2C3C41C#N)C(C)(C)C (configuration not stated) | > 100 µM | –
80 | CN1CCN(Cc2ccc(NC(=O)c3cncc(C#Cc4c(N)ncc5ccccc45)c3)cc2C(F)(F)F)CC1 | 1.43 µM | 0.713 µM
81 | CNC(=O)c1sc(-n2cnc3cc(OC)c(OC)cc32)cc1OCc1ccccc1C(F)(F)F | > 25 µM | > 25 µM
82 | COc1cc2c(c3oc4c(O)cccc4c(=O)c13)CC(C(C)(O)CCl)O2 (configuration not stated) | 20.8 µM | –
83 | CCCC(O)c1ccc2[nH]c3c(C)cc([N+](=O)[O-])c(C)c3c2c1 (configuration not stated) | > 100 µM | –
84 | COC(=O)CC(=O)OC1C[C@@H]2CCC3C(C)(C)CCC[C@]3(C)C23CC[C@@]1(C)C3 (some centres not stated) | 34 µM | –
85 | Cc1ccc2c(c1)CC1(Cc3cc(C)ccc3C1=O)C2=O | > 100 µM | –
86 | CC(NC(CC12CC3CC(CC(C3)C1)C2)C(N)=O)c1ccccc1 (configuration not stated) | > 100 µM | –
87 | CN(C)NC(=O)NC12CC3CC(CC(C3)C1)C2 | > 100 µM | –
88 | O=C1N(c2ccc(Cl)cc2)C(=O)C2(SC=NN2Cc2ccccc2)N1c1ccc(Cl)cc1 (configuration not stated) | > 100 µM | –
89 | O=C1C=C2SC3C[C@@]24CC1(O)[N+]1=c2c4c(c(O)c4c2=C(C=N4)CC1)N3 | 2.86 µM | –
90 | O=C(NOCCO)c1ccc2cncn2c1Nc1ccc(I)cc1F | > 100 µM | 0.0604 µM and 0.0427 µM
91 | CCn1c(=O)c2nc(SC)sc2n(-c2ccccc2)c1=S | > 100 µM | –
92 | Nc1nc(SCC#CCCl)c2[nH]cnc2n1 | 31.9 µM | 13.1 µM
93 | COc1cc(F)c(F)c(Nc2ccc(I)cc2F)c1NS(=O)(=O)C1(CC(O)CO)CC1 (configuration not stated) | 57.9 µM | 14.9 µM
94 | O=c1[nH]nc(-c2cccc([N+](=O)[O-])c2)[nH]1 | > 100 µM | –
95 | CCOC(=O)c1c(CN2CCCCC2)nc2ccc(Cl)cc2c1-c1ccccc1 | > 100 µM | 44.1 µM
96 | CCOC(=O)c1c(NS(=O)(=O)c2ccccc2)sc2c1CCCC2 | > 100 µM | –
97 | OC[C@H]1C[C@](O)(c2ccccc2Cl)[C@@H](c2ccccc2Cl)O1 | > 100 µM | 32.7 µM
